At least one peptide structure holds a part that was inferred or is arguable (an end, a ring closure or a residue). Some compounds share one wording; it may come from a single statement. Non-standard residues stand in square brackets, D forms with d. Residues, ends and D or L forms follow the SMILES beside them. pGlu = O=C1CC[C@@H](C(=O)O)N1
System: mAb 1H11
Experiment: OSTEOMARK competitive immunoassay testing apparent affinity of synthetic peptides for mAb 1H11
Format: binding
Details: for Results: peptide binding to mAb 1H11, 1 μg synthetic peptide = X nmole BCE: nanomoles Bone Collagen Equivalents equivalent to 1 μg peptide, back fit into OSTEOMARK standard curve, values between 0.5 and 1 OD averaged; for binding to mAb 1H11 (in words): synthetic peptide, antibody inhibition assay
Source text: Generally, a milligram per mL solution of the peptide was made in PBS. The absorbence at A280 was read and the concentration confirmed. Dilutions of the peptide were then made in a buffer such as OSTEOMARK (TM) calibrator diluent (OSTEOMARK Assay, Ostex International, Seattle, Wash.). Working strength concentrations were between 10 and 0.01 micrograms per milliliter.
To test the apparent affinity of the synthetic peptides for mAb 1H11, the OSTEOMARK assay was run using OSTEOMARK kits and components, including monoclonal antibody 1H11. A standard curve was run using OSTEOMARK calibrators. Peptide samples were generally tested at 10, 3, 1, and down to 0.01 μG per mL. The standard OSTEOMARK curve was generated using a four parameter logistic curve fit program (MedData Inc., N.Y., N.Y.). Peptide values were back fit into the standard curve and values were reported in picomoles Bone Collagen Equivalents (BCE)/mL (which equals nanomolar BCE, or nM BCE).
Values in the Table are reported as the number of nanomoles of BCE equivalent to a microgram of a given peptide. Antibody binding values below 500 nMole BCE were considered to be commercially insignificant.

Row | SMILES | Results: peptide binding to mAb 1H11, 1 μg synthetic peptide = X nmole BCE [nmole BCE] | Results: peptide binding to mAb 1H11, 1 μg synthetic peptide = X nmole BCE (listed as 33) [nmole BCE] | binding to mAb 1H11 (in words) (listed as 33) | binding to mAb 1H11 (in words)
1 | CC(C)[C@H](NC(=O)CNC(=O)[C@H](CCCNC(=N)N)NC(=O)CNC(=O)[C@H](CC(=O)O)NC(=O)[C@H](Cc1ccc(O)cc1)NC(=O)[C@@H]1CCC(=O)N1)C(=O)N[C@@H](C)C(=O)O [SEQ ID NO:21, J Y D G R G V A] ([pGlu]YDGRGVA-OH) | 6 | – | – | –
2 | CC(C)C[C@H](NC(=O)[C@@H](NC(=O)CNC(=O)[C@H](CCC(=O)O)NC(=O)CNC(=O)[C@H](CC(=O)O)NC(=O)[C@H](Cc1ccc(O)cc1)NC(=O)[C@@H]1CCC(=O)N1)C(C)C)C(=O)O [SEQ ID NO:22, J Y D G E G V L] ([pGlu]YDGEGVL-OH) | < 50 | – | – | –
3 | CC(C)[C@H](NC(=O)CNC(=O)[C@H](CCC(=O)O)NC(=O)CNC(=O)[C@H](CC(=O)O)NC(=O)[C@H](Cc1ccc(O)cc1)NC(=O)[C@@H]1CCC(=O)N1)C(=O)O [SEQ ID NO:23, J Y D G E G V] ([pGlu]YDGEGV-OH) | < 50 | – | – | –
4 | O=C(O)CC[C@H](NC(=O)CNC(=O)[C@H](CC(=O)O)NC(=O)[C@H](Cc1ccc(O)cc1)NC(=O)[C@@H]1CCC(=O)N1)C(=O)O [SEQ ID NO:24, J Y D G E] ([pGlu]YDGE-OH) | < 50 | – | – | –
5 | CC(C)[C@H](NC(=O)CNC(=O)[C@H](CCC(=O)O)NC(=O)CNC(=O)[C@H](CC(=O)O)NC(=O)[C@@H](N)Cc1ccc(O)cc1)C(=O)O [SEQ ID NO:25, Y D G E G V] (H-YDGEGV-OH) | < 50 | – | – | –
6 | CC(C)[C@H](NC(=O)CNC(=O)[C@H](CCC(=O)O)NC(=O)CNC(=O)[C@H](CC(=O)O)NC(=O)[C@H](Cc1ccc(O)cc1)NC(=O)[C@@H]1CCC(=O)N1)C(=O)NCC(=O)O [SEQ ID NO:33, E^3 Y D G E G V G] ([pGlu]YDGEGVG-OH) | – | 2000 | substantial increase | –
7 | CC(C)[C@H](NC(=O)[C@@H](NC(=O)CNC(=O)[C@H](CCC(=O)O)NC(=O)CNC(=O)[C@H](CC(=O)O)NC(=O)[C@H](Cc1ccc(O)cc1)NC(=O)[C@@H]1CCC(=O)N1)C(C)C)C(=O)O [SEQ ID NO:35, J Y D G E G V V] ([pGlu]YDGEGVV-OH) | 5 | – | – | loss of mAb 1H11 binding affinity
8 | CC(C)[C@H](NC(=O)CNC(=O)[C@H](CCC(=O)O)NC(=O)CNC(=O)[C@H](CC(=O)O)NC(=O)[C@H](Cc1ccc(O)cc1)NC(=O)[C@@H](N)CCC(N)=O)C(=O)NCC(=O)O [SEQ ID NO:39, Q Y D G E G V G] (H-QYDGEGVG-OH) | < 50 | – | – | –
9 | CC(C)[C@H](NC(=O)CNC(=O)[C@H](CCC(=O)O)NC(=O)CNC(=O)[C@H](CC(=O)O)NC(=O)[C@H](Cc1ccc(O)cc1)NC(=O)CNC(=O)CN)C(=O)NCC(=O)O [SEQ ID NO:41, G G Y D G E G V G] (H-GGYDGEGVG-OH) | < 50 | – | – | prevents mAb 1H11 binding
10 | CC(C)C[C@H](NC(=O)[C@H](CCCCN)NC(=O)CNC(=O)CNC(=O)[C@@H](NC(=O)CNC(=O)[C@H](CCC(=O)O)NC(=O)CNC(=O)[C@H](CC(=O)O)NC(=O)[C@H](Cc1ccc(O)cc1)NC(=O)[C@@H]1CCC(=O)N1)C(C)C)C(=O)O [SEQ ID NO:42, J Y D G E G V G G K L] ([pGlu]YDGEGVGGKL-OH) | < 50 | – | – | prevents mAb 1H11 binding
11 | CC(C)[C@H](NC(=O)CNC(=O)[C@H](CCC(=O)O)NC(=O)CNC(=O)[C@H](CC(=O)O)NC(=O)[C@H](Cc1ccc(O)cc1)NC(=O)[C@@H](N)CO)C(=O)NCC(=O)O [SEQ ID NO:43, S Y D G E G V G] (H-SYDGEGVG-OH) | < 50 | – | – | –
12 | CC(C)[C@H](NC(=O)CN)C(=O)NCC(=O)N[C@@H](CS)C(=O)NCC(=O)N[C@@H](CC(=O)O)C(=O)N[C@@H](Cc1ccc(O)cc1)C(=O)N[C@@H](CCC(N)=O)C(=O)O [SEQ ID NO:45, G V G C G D Y Q] (H-GVGCGDYQ-OH) | < 50 | – | – | –
13 | CC(C)[C@H](NC(=O)[C@H](CCC(=O)O)NC(=O)CNC(=O)[C@H](CC(=O)O)NC(=O)[C@H](Cc1ccc(O)cc1)NC(=O)[C@@H]1CCC(=O)N1)C(=O)N[C@H](C(=O)NCC(=O)O)C(C)C [SEQ ID NO:46, J Y D G E V V G] ([pGlu]YDGEVVG-OH) | < 50 | – | – | loss of mAb 1H11 binding affinity
14 | O=C(O)CC[C@H](NC(=O)CNC(=O)[C@H](CC(=O)O)NC(=O)[C@H](Cc1ccc(O)cc1)NC(=O)[C@@H]1CCC(=O)N1)C(=O)NCC(=O)NCC(=O)NCC(=O)O [SEQ ID NO:47, J Y D G E G G G] ([pGlu]YDGEGGG-OH) | < 50 | – | – | –
15 | C[C@H](NC(=O)CNC(=O)[C@H](CCC(=O)O)NC(=O)CNC(=O)[C@H](CC(=O)O)NC(=O)[C@H](Cc1ccc(O)cc1)NC(=O)[C@@H]1CCC(=O)N1)C(=O)NCC(=O)O [SEQ ID NO:48, J Y D G E G A G] ([pGlu]YDGEGAG-OH) | < 50 | – | – | –
16 | CC(C)[C@H](NC(=O)CNC(=O)[C@H](CCC(=O)O)NC(=O)CNC(=O)[C@H](CC(=O)O)NC(=O)[C@H](Cc1ccc(O)cc1)NC(=O)[C@@H]1CCC(=O)N1)C(=O)N[C@@H](C)C(=O)O [SEQ ID NO:49, J Y D G E G V A] ([pGlu]YDGEGVA-OH) | < 50 | – | – | loss of mAb 1H11 binding affinity
17 | CC(C)[C@H](NC(=O)CNC(=O)[C@H](CCC(=O)O)NC(=O)CNC(=O)[C@H](CC(=O)O)NC(=O)[C@H](Cc1ccc(O)cc1)NC(=O)[C@@H]1CCCN1)C(=O)NCC(=O)O [SEQ ID NO:51, P Y D G E G V G] (H-PYDGEGVG-OH) | < 50 | – | – | –
18 | O=C(O)CC[C@H](NC(=O)CNC(=O)[C@H](CC(=O)O)NC(=O)[C@H](Cc1ccc(O)cc1)NC(=O)[C@@H]1CCC(=O)N1)C(=O)N[C@@H](CS)C(=O)NCC(=O)NCC(=O)O [SEQ ID NO:52, J Y D G E C G G] ([pGlu]YDGECGG-OH) | < 50 | – | – | loss of mAb 1H11 binding affinity
19 | CC(C)[C@H](NC(=O)[C@@H]1CCC(=O)N1)C(=O)NCC(=O)N[C@@H](CCC(=O)O)C(=O)NCC(=O)N[C@@H](CC(=O)O)C(=O)N[C@@H](Cc1ccc(O)cc1)C(=O)N[C@@H](CC(N)=O)C(=O)O [SEQ ID NO:53, J V G E G D Y N] ([pGlu]VGEGDYN-OH) | < 50 | – | – | –
20 | CC(C)[C@H](NC(=O)CNC(=O)[C@H](CCC(=O)O)NC(=O)CNC(=O)[C@H](CC(=O)O)NC(=O)[C@H](Cc1ccc(O)cc1)NC(=O)[C@@H]1CCC(=O)N1)C(=O)N1CCC[C@H]1C(=O)O [SEQ ID NO:54, J Y D G E G V P] ([pGlu]YDGEGVP-OH) | < 50 | – | – | loss of mAb 1H11 binding affinity
21 | CC[C@H](C)[C@H](NC(=O)CNC(=O)[C@H](CCC(=O)O)NC(=O)CNC(=O)[C@H](CC(=O)O)NC(=O)[C@H](Cc1ccc(O)cc1)NC(=O)[C@@H]1CCC(=O)N1)C(=O)NCC(=O)O [SEQ ID NO:55, J Y D G E G I G] ([pGlu]YDGEGIG-OH) | < 50 | – | – | eliminate the requisite binding of mAb 1H11
22 | CC(C)[C@H](NC(=O)CNC(=O)[C@H](CCC(=O)O)NC(=O)CNC(=O)[C@H](CC(=O)O)NC(=O)[C@H](Cc1ccc(O)cc1)NC(=O)[C@@H]1CCC(=O)N1)C(=O)N[C@@H](CS)C(=O)O [SEQ ID NO:56, J Y D G E G V C] ([pGlu]YDGEGVC-OH) | < 50 | – | – | loss of mAb 1H11 binding affinity
